Source: the supplement of paper PMC3334620
Over roughly 33,000 sequences, “E-score (-0.5 to 0.5)” has its median near -0.017; the highest 2% begin near 0.3. This is one part of the list.

Target: T1, Sut1 (UniProt P53032)
T1 sequence: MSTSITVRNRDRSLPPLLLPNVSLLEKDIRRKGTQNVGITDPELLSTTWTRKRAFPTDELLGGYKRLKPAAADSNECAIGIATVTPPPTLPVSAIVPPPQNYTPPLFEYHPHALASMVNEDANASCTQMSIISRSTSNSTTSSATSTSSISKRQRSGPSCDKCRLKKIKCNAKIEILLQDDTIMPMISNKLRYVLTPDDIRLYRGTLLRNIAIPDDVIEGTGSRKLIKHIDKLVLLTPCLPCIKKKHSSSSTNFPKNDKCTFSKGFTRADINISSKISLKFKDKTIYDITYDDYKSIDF
Assay: PBM E-score (8-mer binding enrichment) (E-score (-0.5 to 0.5)); higher = stronger / more preferred TF binding; most listed sequences are background and not binding sites
Conditions: protein concentration: 200 nM; construct: GST-full length
In short: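 Full-length yeast transcription factors or their DNA-binding domains, GST-tagged and expressed with PURExpress, were applied at about 100-200 nM to universal all-10-mer Agilent arrays. These arrays had been made double-stranded by primer extension on fresh or once-stripped slides. Detection used fluorescent anti-GST, normalisation used masliner, and E-scores for ungapped eight-base words pooled with reverse complements came from the Universal PBM Analysis Suite.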

Sequence | PBM E-score
TCGTAGCA | -0.0446
GTGTTAAC | -0.0281
TATAGTGA | 0.121
ACTTAGTC | -0.144
CACGGAAC | 0.202
GCATCTAA | 0.158
AGAAAGGC | -0.054
CGTATAGA | 0.125
TCTAGCAA | 0.126
CGTCCTTC | -0.0411
ATGGGAAC | -0.0636
ATTCCGAA | 0.378
CCCTATCG | -0.224
ATAGCGGG | -0.0741
CCTACCAC | -0.236
CATCATAG | 0.107
GGACACAA | 0.0694
CAGTCGCG | -0.119
ATGCTCAA | -0.0662
ATCACTGG | -0.0543
CACGTTTC | 0.0143
ATCTTGCG | 0.0128

Sequence | PBM E-score
ACGCAGTA | 0.0511
CTCTGCTA | -0.228
CCGTGAGA | -0.175
GGATGTCA | 0.102
CCACGCCA | -0.0694
GCTGGTAC | -0.118
ACGCGGAC | 0.302
CTTGTAGC | -0.0491
AGCCCCCT | -0.226
GTCGTAGA | 0.0683
ACTAGCAA | -0.00525
CGTGGTGA | -0.15
CCACACAA | 0.077
CATCCAGA | -0.184
ACCCGATA | -0.104
AGCCCACT | -0.148
CGGCGCGA | -0.0164
AGGATGAT | -0.0348
ACCGGATG | 0.00862
GGCATCCC | -0.236
GGCTCAGA | 0.0135
CGACGCGA | -0.133

Sequence | PBM E-score
ACGGTGCT | -0.0392
CGGCAAGA | -0.0505
CCGGGTCG | -0.079
GGCACTAA | 0.0491
ACATCCAC | 0.08
AGCCGTCC | 0.0505
GGTGCTGA | -0.119
AATGGTAC | 0.129
AAAAATAG | 0.27
ACTTTGAT | 0.0105
GAGTGTTA | 0.109
AAAGTACA | 0.107
TCTGATCA | -0.154
GAGGGCTA | -0.234
GAGCATCA | 0.0861
TCTCGCAA | 0.0389
GCTTTTCC | 0.0525
CAACCTTC | 0.0437
AGTAAGCA | -0.0193
CTATGCGC | -0.148
AGCTCCTA | -0.173
CCTGACAA | -0.147

Sequence | PBM E-score
CGAACGAC | 0.0205
CCAGGGTC | -0.265
TACGGCAA | -0.0263
AGGCTGTC | -0.137
CCCGCATC | -0.0615
GATCCGCA | -0.225
ACCTGTAC | -0.0416
ATTCCAGG | -0.0249
AACCCCAA | -0.0115
GATAAGTA | 0.189
AGACCTCG | -0.0853
CCCGTCCA | -0.198
AAGCGATT | 0.0402
GAATGGTC | -0.0614
ACAATGGT | -0.137
CCATAGTC | -0.176
CCGCGTGA | 0.0524
CTTCGGGA | -0.00189
AGCCGACG | -0.132
TCAAGCAA | 0.0551
CGAGATCA | 0.122
CATTGCCA | -0.0454

Sequence | PBM E-score
CCACTCCA | -0.174
ACTTCGTG | -0.114
AGCTACAT | -0.136
ACGCGGCT | -0.0648
TATCGTCA | -0.16
CGAAAATC | 0.252
AGTACCTG | 0.0244
CCATTCTA | 0.0575
GACGTAAA | -0.0834
ACACCGGA | 0.343
GCCTGCGC | -0.241
ACTTTCAA | 0.257
GTAACCAA | 0.116
GATAAGAC | -0.101
CAGTGAAC | -0.0239
GCTGCGTA | -0.134
GCGCGGAA | 0.15
CAGGTGTA | -0.129
GAGACGCA | -0.0137
GTCCAATA | 0.106
GAAGGGCC | -0.131
AAGAAAAT | 0.257
